In patent US20180214612A1 (INSTITUTE OF GENETICS AND DEVELOPMENTAL BIOLOGY CHINESE …, published 2018):

What was measured:
[1] = target: T1, Type I collagen prepared from rat tail tendon (rat, UniProt P02454 152-1207; P02466 86-1125); test: modified ELISA on plate coated with rat tail type I collagen, anti-polyhistidine detection, Scatchard analysis
T1 construct: Tissue-derived collagen solution coated on 96-well plates; the two chains are those of natural type I collagen; also called collagen gel
T1 sequence (P02454 152-1207 limits assumed, chain 1 of 2): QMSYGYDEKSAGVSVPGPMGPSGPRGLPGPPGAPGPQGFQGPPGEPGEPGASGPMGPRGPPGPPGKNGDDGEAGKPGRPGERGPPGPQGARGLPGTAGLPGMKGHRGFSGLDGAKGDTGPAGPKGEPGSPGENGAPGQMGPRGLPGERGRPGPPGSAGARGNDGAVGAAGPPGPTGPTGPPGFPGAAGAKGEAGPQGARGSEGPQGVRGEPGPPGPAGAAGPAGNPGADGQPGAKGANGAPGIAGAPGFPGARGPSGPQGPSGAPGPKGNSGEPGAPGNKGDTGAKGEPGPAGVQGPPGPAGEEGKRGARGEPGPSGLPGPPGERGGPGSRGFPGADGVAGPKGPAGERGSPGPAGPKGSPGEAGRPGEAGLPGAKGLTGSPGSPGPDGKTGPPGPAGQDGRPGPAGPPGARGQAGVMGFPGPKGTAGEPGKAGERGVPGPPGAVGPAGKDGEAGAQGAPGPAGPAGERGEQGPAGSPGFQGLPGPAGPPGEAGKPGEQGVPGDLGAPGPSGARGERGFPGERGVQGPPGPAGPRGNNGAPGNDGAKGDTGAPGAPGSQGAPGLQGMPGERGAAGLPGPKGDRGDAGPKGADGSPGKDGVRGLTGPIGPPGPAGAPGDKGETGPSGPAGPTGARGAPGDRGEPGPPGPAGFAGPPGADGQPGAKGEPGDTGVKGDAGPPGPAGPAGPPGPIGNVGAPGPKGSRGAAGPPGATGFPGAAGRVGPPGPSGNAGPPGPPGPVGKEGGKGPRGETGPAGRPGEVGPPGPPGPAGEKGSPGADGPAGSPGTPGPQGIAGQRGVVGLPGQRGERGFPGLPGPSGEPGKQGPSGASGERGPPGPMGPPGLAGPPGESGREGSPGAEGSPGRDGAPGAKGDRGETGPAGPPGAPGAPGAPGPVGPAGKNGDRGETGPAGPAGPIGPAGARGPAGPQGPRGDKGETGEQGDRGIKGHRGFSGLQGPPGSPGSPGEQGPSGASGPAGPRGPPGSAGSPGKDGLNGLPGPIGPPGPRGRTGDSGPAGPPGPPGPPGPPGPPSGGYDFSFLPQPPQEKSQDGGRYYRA
T1 sequence (P02466 86-1125 limits assumed, chain 2 of 2, further chain): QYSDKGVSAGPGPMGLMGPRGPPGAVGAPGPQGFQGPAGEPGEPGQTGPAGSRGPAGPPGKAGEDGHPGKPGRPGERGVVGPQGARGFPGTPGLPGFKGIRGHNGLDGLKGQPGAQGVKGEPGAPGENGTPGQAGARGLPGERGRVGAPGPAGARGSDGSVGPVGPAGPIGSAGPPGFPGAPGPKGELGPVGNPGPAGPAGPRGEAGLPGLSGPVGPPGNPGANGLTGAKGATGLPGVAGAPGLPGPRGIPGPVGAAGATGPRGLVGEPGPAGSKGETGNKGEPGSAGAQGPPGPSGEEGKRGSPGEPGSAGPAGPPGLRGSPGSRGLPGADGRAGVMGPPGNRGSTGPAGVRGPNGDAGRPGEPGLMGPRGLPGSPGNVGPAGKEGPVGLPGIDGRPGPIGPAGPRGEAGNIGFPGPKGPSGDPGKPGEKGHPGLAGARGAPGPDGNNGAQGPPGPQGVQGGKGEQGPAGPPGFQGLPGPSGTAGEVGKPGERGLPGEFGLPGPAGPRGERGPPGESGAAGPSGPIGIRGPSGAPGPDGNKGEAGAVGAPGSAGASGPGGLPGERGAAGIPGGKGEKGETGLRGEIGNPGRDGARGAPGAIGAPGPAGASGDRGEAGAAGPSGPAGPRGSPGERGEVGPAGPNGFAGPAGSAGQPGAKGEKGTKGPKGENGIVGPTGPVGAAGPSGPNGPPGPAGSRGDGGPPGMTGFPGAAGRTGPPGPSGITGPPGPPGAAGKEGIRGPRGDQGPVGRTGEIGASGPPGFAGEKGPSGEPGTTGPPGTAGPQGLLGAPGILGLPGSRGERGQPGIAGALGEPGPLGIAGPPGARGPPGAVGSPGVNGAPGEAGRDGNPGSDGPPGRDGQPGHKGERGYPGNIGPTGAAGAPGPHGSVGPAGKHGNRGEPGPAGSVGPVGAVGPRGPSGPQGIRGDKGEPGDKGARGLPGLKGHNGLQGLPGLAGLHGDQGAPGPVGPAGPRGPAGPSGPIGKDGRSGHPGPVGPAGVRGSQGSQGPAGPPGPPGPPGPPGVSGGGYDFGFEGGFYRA

[2] = target: 3D collagen membrane scaffold prepared from bovine skin (bovine); test: release assay from 3D bovine collagen membrane loaded with 1.0 nmol protein, PBS, 37° C on a rocker, released SDF-1α measured by ELISA kit
[3] = target: T1, Type I collagen prepared from rat tail …; test: modified ELISA on a plate coated with rat tail type I collagen; detection with anti-polyhistidine primary antibody and alkaline phosphatase-conjugated secondary antibody, OD 405 nm [1D]

Kd [1]: 254 nM
percent retained on collagen scaffold at day 9 [2]: ~50%
EC50 (read off the curve) [3]: ~1000 nM
B1: CBD-SDF-1α (fusion of native human SDF-1α, linker and collagen-binding domain at the C-terminal, with 6×His tag) (ligand)
chain: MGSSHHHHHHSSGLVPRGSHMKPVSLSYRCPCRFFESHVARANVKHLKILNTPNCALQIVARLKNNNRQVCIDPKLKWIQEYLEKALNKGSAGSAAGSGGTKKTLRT
notes: also called CBD-SDF-1α fusion protein with His-tag
